Reference: patent US5216124A, “Substituted cyclic tetrapeptides” (G. D. Searle & Co., priority 1991, dated 1993)
“Also recorded” adds a separate entry of the source. Part of at least one peptide drawing is inferred or uncertain, most often the ends. Positions of bridges follow the written chain, without caps; N, C: chain ends. Non-standard residues stand in square brackets, D forms with d. Residues, ends and D or L forms follow the SMILES beside them. Dmt = Cc1cc(O)cc(C)c1C[C@H](N)C(=O)O; dPen = CC(C)(S)[C@@H](N)C(=O)O

Experiments:
[1] = biological target: δ opioid receptors (Rattus norvegicus, UniProt P33533); assay: Opiate Binding Assay, displacement of 3[H]-DSLET; conditions: ratio of mean IC50 μ to δ; above 1.0 = more specific for δ
[2] = system: Charles River albino mice; assay: Tail Flick Assay; type: in vivo, mouse
Text: (§1) The "Tail Flick Assay" and the "Hot Plate Assay" (also known as the "Hind Paw Lick Assay") use thermal pain of transient duration, and are tests in which the pain threshold of the mice or rats being analyzed has not been altered. They are useful for evaluating the ability of a compound or drug to increase the animal's pain threshold (i.e. prolong response latencies), rather than to restore normal thresholds.
(§2) The heat-induced response to the Tail Flick Assay is a reflex reaction mediated at the level of the spinal cord. The heat-induced response to the Hot Plate Assay, however, is a more complex behavior requiring integration at higher centers in the brain.
(§3) The Tail Flick Assay and the Hot Plate Assay were performed generally in the manner described by G. Woolfe et al., "The Evaluation of the Analgesic Action of Pethidine Hydrochloride (Demerol), J. Pharmacol. Exp. Ther. 80, 300, (1944), F. D'Amour et al., "A Method for Determining Loss of Pain Sensation," J. Pharmacol. Exp. Ther , 72, 74, 300-307 (1941), and E. Drower et al., "The Antinociceptive Effects of Prostaglandin Antagonists in the Rat," European Journal of Pharmacology, 133, 249-256 (1987).
(§4) Male Charles River albino mice and male Charles River Sprague-Dawley rats weighing 20 to 30 g, and 200 to 250 g, respectively, were employed in these assays.
(§5) Tail flick response latencies (defined as the time that elapsed between the onset of a high intensity beam of light and the reflex removal of the mouse or rat's tail) and hot plate response latencies (defined as the time that elapsed between the placement of a mouse or rat on a 55 degrees Celsius surface and a lick of the hind paw) were separately, but consecutively, measured before (baseline) and again at fixed intervals after subcutaneous or intracerebroventricular administration of one of the tetrapeptide compounds of the invention, the Methyl Ester Tetrapeptide, the Mosberg Tetrapeptide, or after the administration of saline (controls). The cut-off latencies established to prevent tissue damage in the animals are 12 seconds or 14 seconds in the mouse and rat, respectively, in the Tail Flick Assay, and 40 seconds for both species in the Hot Plate Assay. The significance of any increase in tail flick response latency or hot plate response latency is determined using analyses of variance.
(§6) "Activity" or "Inactivity" was determined at a particular concentration of the tetrapeptide by a significant increase in tail flick or hot plate latencies above normal latencies. Where applicable, the ED50 value was determined.
One way analyses of variance were used to determine the significance of the effect of the tetrapeptides on response latencies. […]

[3] = system: Charles River albino mice; assay: Hot Plate Assay (Hind Paw Lick Assay); type: in vivo, mouse; conditions: for activity (increase in hot plate latency), Intracerebroventricular, no dose given / ED50 value, Intracerebroventricular: i.c.v.; for activity (increase in hot plate latency), Intracerebroventricular, no dose given: ED50 given beside
Text: as §1, §2, §3, §4, §5, §6
One way analyses of variance were used to determine the significance of the effect of the tetrapeptides on response latencies. For these assays, the ED50 value was defined as the dose of a tetrapeptide compound Which produced one half the maximum possible increase in latency (i.e., to 7.5 and 8.5 seconds in the mouse and rat, respectively, in the Tail Flick Assay, and to 25 seconds in both species in the Hot Plate Assay). Calculations of ED50 values were based upon a least squared linear regression equation computed for the data at a time of peak effect, as described by D'Amour and Woolfe, supra.
The data resulting from the Tail Flick Assay and the Hot Plate Assay are presented in Tables II and III below, respectively. The numbers in parentheses are ED50 values.

[4] = system: CD Charles River mice; assay: Writhing Assay (PBQ-induced writhing); type: in vivo, mouse
Text: The "Writhing Assay" is one of the most widely-used experimental procedures for measuring the analgesic activity of different narcotic and nonnarcotic analgesic agents, and involves the continuous, chemically-induced pain of visceral origin to an animal, such as a mouse or rat. [Gyires et al., Arch. int. Pharmacodyn, 267, 131-140 (1984); C. Vander Wende et al., Fed. Proc., 15, 494 (1956); Koster et al., Fed. Proc., 18, 412 (1959); and Witken et al., J. Pharmacol. Exp. Ther., 133, 400-408 (1961). ] Chemicals which may be used to induce this pain include phenylbenzoquinone (PBQ) and acetic acid. […]
Five minutes later, each mouse was individually placed into a glass beaker for observation, and the number of writhes occurring during the following ten-minute period was counted.
A tetrapeptide compound was considered to be "active" (to have produced analgesia in a mouse) if, in accordance with the conditions set forth above, and under the test criteria employed for this assay, after the administration of 10 mg per kilogram of body weight of the tetrapeptide to the mouse, the number of writhes elicited by a mouse injected with PBQ was equal to, or less than, one-half the median number of writhes recorded for the saline-treated control group of mice that day, as described by R. I. Taber, supra. […]

[5] = dose giving half the maximum possible increase in latency

Chain of δ opioid receptors (P33533 whole entry): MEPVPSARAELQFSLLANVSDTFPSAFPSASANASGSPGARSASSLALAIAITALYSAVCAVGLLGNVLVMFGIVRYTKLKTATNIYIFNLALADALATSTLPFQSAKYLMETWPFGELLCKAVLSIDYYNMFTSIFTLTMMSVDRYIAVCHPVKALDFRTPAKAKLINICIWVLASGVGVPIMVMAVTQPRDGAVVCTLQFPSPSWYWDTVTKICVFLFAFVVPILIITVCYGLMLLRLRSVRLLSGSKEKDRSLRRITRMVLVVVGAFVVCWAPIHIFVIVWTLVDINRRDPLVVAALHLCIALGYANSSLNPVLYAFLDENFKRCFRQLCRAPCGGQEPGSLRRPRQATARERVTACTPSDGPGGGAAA

SMILES | Mean IC50 Value μ/δ Ratio [1] | activity (increase in tail flick latency), Intracerebroventricular, no dose given ([2]; i.c.v., ED50 given beside) | ED50 value, Intracerebroventricular ([2]; i.c.v., dose giving half the maximum possible increase in latency) [µg/kg] | activity (increase in hot plate latency), Intracerebroventricular, no dose given [3] | ED50 value, Intracerebroventricular [3, 5] [µg/kg] | activity in words, Intragastric ([4]; 10 mg/kg i.g. screening dose) | activity in words, Subcutaneous ([4]; 10 mg/kg s.c. screening dose, 10 mg/kg) | activity (increase in tail flick latency), Subcutaneous ([2]; s.c., at 100 mpk, 100 mg/kg) | ED50 value, Intracerebroventricular [3] | activity (increase in hot plate latency), Subcutaneous ([3]; s.c., at 100 mpk, 100 mg/kg) | activity (increase in tail flick latency), Intracerebroventricular ([2]; i.c.v., at 1 μg/kg)
Cc1cc(O)cc(C)c1C[C@H](N)C(=O)N[C@@H]1CSSC(C)(C)[C@H](C(=O)O)NC(=O)[C@H](Cc2ccccc2)NC1=O [Example 4, 2,6-dimethyl-L-tyrosyl-D-cysteinyl-L-phenylalanyl-3-mercapto-D-valine, cyclic (2→4)-disulfide] (H-[Dmt][dC]F[dPen]-OH; disulfide 2-4) | 13.6 | Active | 0.45 | Active | 0.55 |  |  |  |  |  | 
COC(=O)[C@@H]1NC(=O)[C@H](Cc2ccccc2)NC(=O)[C@H](NC(=O)[C@@H](N)Cc2ccc(O)cc2)CSSC1(C)C [Methyl Ester Tetrapeptide, reference compound] (H-Y[dC]F[dPen]-OMe; disulfide 2-4) |  |  |  |  |  | Inactive | no activity; also recorded: Inactive | inactive | 1.0 μg per kilogram of body weight | inactive | 
CC1(C)SSC[C@@H](NC(=O)[C@@H](N)Cc2ccc(O)cc2)C(=O)N[C@@H](Cc2ccccc2)C(=O)N[C@H]1C(=O)O [Mosberg Tetrapeptide, reference compound] (H-Y[dC]F[dPen]-OH; disulfide 2-4) |  |  |  | Active | 1.0 |  |  |  |  |  | inactive
